Assay results reported in paper PMC4336329 (PLoS ONE, 2015).
In all, about 310,000 compounds went through this assay and about 2,200 (0.71%) showed an effect of 50% or more. Effects have a minus sign here. This is one part of the list.

target: human ether-à-go-go-related gene (hERG) potassium channel (human, UniProt Q12809); experiment: primary screen, population patch clamp on CHO cells stably expressing hERG
Sequence (Q12809 whole entry, looked up): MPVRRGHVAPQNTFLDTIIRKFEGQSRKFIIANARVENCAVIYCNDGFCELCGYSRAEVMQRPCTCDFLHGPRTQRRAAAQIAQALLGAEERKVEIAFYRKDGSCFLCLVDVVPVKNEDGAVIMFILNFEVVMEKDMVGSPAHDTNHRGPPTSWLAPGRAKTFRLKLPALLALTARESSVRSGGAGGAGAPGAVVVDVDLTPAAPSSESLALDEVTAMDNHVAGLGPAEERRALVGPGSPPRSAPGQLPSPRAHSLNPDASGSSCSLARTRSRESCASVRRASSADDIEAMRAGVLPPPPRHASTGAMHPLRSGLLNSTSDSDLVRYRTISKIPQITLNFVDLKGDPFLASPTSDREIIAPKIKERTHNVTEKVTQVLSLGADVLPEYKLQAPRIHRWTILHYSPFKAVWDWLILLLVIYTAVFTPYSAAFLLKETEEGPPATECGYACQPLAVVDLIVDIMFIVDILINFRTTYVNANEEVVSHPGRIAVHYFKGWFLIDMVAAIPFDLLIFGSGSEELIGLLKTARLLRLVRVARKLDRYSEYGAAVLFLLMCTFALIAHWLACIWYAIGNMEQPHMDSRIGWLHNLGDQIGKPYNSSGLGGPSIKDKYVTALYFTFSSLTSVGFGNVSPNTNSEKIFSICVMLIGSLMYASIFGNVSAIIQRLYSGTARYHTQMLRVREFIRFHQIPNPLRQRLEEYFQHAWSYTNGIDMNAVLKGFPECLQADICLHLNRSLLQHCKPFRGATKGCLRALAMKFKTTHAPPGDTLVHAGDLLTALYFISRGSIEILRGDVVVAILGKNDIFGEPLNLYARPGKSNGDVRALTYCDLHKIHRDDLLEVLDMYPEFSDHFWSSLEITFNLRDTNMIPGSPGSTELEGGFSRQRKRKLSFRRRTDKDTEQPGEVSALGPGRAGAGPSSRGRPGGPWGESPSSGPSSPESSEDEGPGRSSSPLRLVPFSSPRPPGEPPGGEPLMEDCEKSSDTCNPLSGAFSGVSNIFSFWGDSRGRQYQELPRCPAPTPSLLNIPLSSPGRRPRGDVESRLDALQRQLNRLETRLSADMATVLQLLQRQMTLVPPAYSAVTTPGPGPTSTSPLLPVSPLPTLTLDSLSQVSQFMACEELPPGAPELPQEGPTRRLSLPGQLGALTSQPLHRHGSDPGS

Compound | hERG current change (%, negative = inhibition) at 1uM
Cc1ccc2c(c1)c1c(n2CC(O)CN2CCOCC2)CCCC1.Cl (stereo not drawn) | 13%
NC(=O)C1CCN(C(=O)c2cc3c(s2)CCCC3)CC1 | 0.801%
Cc1cccc(NC(=S)NNC(=O)COc2ccc(Cl)cc2Cl)c1 | 3.42%
COc1ccc(/C=N/NS(=O)(=O)c2ccccc2)cc1OS(=O)(=O)c1ccc(C)cc1 | 15.8%
CCN1CCN(CCNC(=O)c2cn(C(C)c3ccccc3F)nn2)CC1 (stereo not drawn) | 12.6%
COc1ccc2cc(C=NS(=O)(=O)c3ccc(C)cc3)n(C)c2c1 | 13.7%
CC(C)C1CC(=O)NC(SCC(=O)Nc2ccc(Br)cc2)=C1C#N (stereo not drawn) | 5.76%
O=C(C1CCCO1)N1CCN(Cc2c(O)ccc3ccccc23)CC1 (stereo not drawn) | 9.81%
CC(=O)Nc1ccc(C(=O)NNC(=O)C2CC2)cc1 | 19.4%
C=CCOc1ccc(C(=O)Nc2ccc3c(c2)n(C)c(=O)n3C)cc1 | 4.59%
CCCCN(C)CCNC(=O)c1cc2cc3ccc(OC)cc3nc2o1 | 5.74%
Cc1cccc(NC(=O)c2ccc(S(=O)(=O)N3CCCCC3C)cc2)n1 (stereo not drawn) | 7.3%
CC1(C)OC(=O)C(C(c2ccccc2)C(C#N)C(N)=O)=C(O)O1.CCN(CC)CC (stereo not drawn) | 0.916%
O=C(N/N=C/c1cccc(C(F)(F)F)c1)C1CCN(c2ncc(C(F)(F)F)cc2Cl)CC1 | 2.51%
CC12CCC(=O)N1C(C(=O)N1CCN(c3ccc(C(F)(F)F)cc3[N+](=O)[O-])CC1)CS2 (stereo not drawn) | -1.99%
Cc1ccccc1C(=O)NC1CCN(Cc2ccccc2)CC1 | 2.11%
O=C(Nc1ccccc1NC(=O)c1csnn1)c1csnn1 | 18%
COc1cc(NC(=O)Cn2nnc(-c3ccccc3N)n2)cc(OC)c1 | 10.9%
CC(=O)C1=C(O)C(=O)N(c2ccc(Br)cc2)C1c1ccccc1[N+](=O)[O-] (stereo not drawn) | 0.772%
Cc1cc(N2C(=O)C(=O)/C(=C(/O)c3ccc(F)cc3)C2c2ccc(Cl)cc2)no1 (stereo not drawn) | 10.5%
Cc1cc(C)nc(SCC(=O)N/N=C/C=C/c2ccccc2)n1 | -2.91%
CC(=O)N1CCN(C(=O)CCC(=O)O)CC1 | 2.11%
CCn1cnc2sc(C(=O)Oc3ccc(Br)cc3)c(C)c2c1=O | 8.8%
Cc1ccc(S(=O)(=O)C2(C(=O)NCCc3ccccc3)CC2)cc1 | 1.67%
